{"source": "PubChem BioAssay (NCATS)", "key": {"KB-3-1": {"tested_on": "KB-3-1", "experiment": "Cytotoxic Profiling of Annotated Libraries Using Quantitative High-Throughput Screening (AID 1296008); also: nearly all actives have a fitted effect of over 60% in size; also: potency is read from the fitted curve at half-maximal effect; as to max response: % is scaled to controls: 0 for no effect and ±100 for the full control effect", "details": "Five cell lines viability, CellTiter-Glo ATP luminescence, 48-72 h; max response: hits give low values", "in_short": "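Cytotoxicity was measured as CellTiter-Glo ATP luminescence, read after 10 min at room temperature. Compound treatment of the cells lasted 48 or 72 hr at 37 degrees Celsius in a qHTS format.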"}, "CAOV3": {"tested_on": "CAOV3", "experiment": "Primary qHTS to identify gynecologic anti-cancer compounds using libraries of approved drugs and bioactive compounds (AID 1345084); also: nearly all actives have a fitted effect of over 55% in size; also: potency is read from the fitted curve at half-maximal effect; as to activity change, negative = cytotoxicity: % is scaled to controls: 0 for no effect and ±100 for the full control effect", "details": "Gynecologic cancer cell panel viability, ATPlite luminescence, 48 h; activity change, negative = cytotoxicity: at 57.5 µM (top of the series)", "in_short": "(§1)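 Cell viability after 48 h drug treatment, ATPlite luminescence readout; five doses.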"}, "JEG-3": {"tested_on": "JEG-3", "experiment": "Primary qHTS to identify gynecologic anti-cancer compounds using libraries of approved drugs and bioactive compounds (AID 1345084)", "details": "Gynecologic cancer cell panel viability, ATPlite luminescence, 48 h; series mostly up to 57.5 µM", "in_short": "as §1"}, "[1]": {"experiment": "Primary qHTS for inhibitors of nuclear receptor binding SET domain protein 2 (NSD2) in an isogenic RCH-ACV NSD2 p.E1099K mutant (9B) (AID 1645876)"}, "[2]": {"experiment": "Primary qHTS for inhibitors of nuclear receptor binding SET domain protein 2 (NSD2) in an RCH-ACV wild type WT cells (2C) (AID 1645877)", "details": "activity change, negative = cell killing: at 44.9 µM (top of the series) unless noted"}, "[3]": {"experiment": "Primary fluorescence-based thiol-reactive (MSTI) qHTS assay for identification of artifact compounds. (AID 1845221)", "in_short": "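Probe: MSTI 4 uM, PBS pH 7.4, 2% DMSO. Incubation 1 h, RT, light-protected. Readout fluorescence 525/598 nm.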"}, "SKOV3": {"tested_on": "SKOV3", "experiment": "Primary qHTS to identify gynecologic anti-cancer compounds using libraries of approved drugs and bioactive compounds (AID 1345084)", "details": "Gynecologic cancer cell panel viability, ATPlite luminescence, 48 h; series mostly up to 57.5 µM", "in_short": "as §1"}, "[4]": {"tested_on": "Zika virus NS2B-NS3 protease (unlinked complex)", "experiment": "Primary screen GU Rhodamine qHTS for Zika virus inhibitors: Unlinked NS2B-NS3 protease assay (AID 1347159)", "in_short": "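Noncovalent NS2B hydrophilic domain–NS3 protease domain complex (25 nM) preincubated 15 min at room temperature with compounds (up to 114 microM) in 10 mM Tris-HCl pH 8.0, 0.01% Tween 20; 1.5 microM Rhodamine110 substrate added, fluorescence change over 15 min fitted to Hill equation.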"}, "[5]": {"tested_on": "Zika virus NS2B-NS3 protease (linked construct)", "experiment": "Primary screen NINDS Rhodamine qHTS for Zika virus inhibitors (AID 1347160)", "details": "activity change, negative = inhibition: at 57.1 µM (top of the series) unless noted", "in_short": "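Purified linked NS2B-NS3 protease (NS2B hydrophilic domain joined to NS3 protease by flexible linker), 25 nM in 10 mM Tris-HCl pH 8.0, 0.01% Tween 20. Compounds titrated, 15 min preincubation at room temperature; 1.5 microM Rhodamine110 substrate, FITC fluorescence change over 15 min.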"}, "Es-2": {"tested_on": "Es-2", "experiment": "Primary qHTS to identify gynecologic anti-cancer compounds using libraries of approved drugs and bioactive compounds (AID 1345084)", "details": "Gynecologic cancer cell panel viability, ATPlite luminescence, 48 h; series mostly up to 57.5 µM", "in_short": "as §1"}, "Tov-21-G": {"tested_on": "Tov-21-G", "experiment": "Primary qHTS to identify gynecologic anti-cancer compounds using libraries of approved drugs and bioactive compounds (AID 1345084)", "details": "Gynecologic cancer cell panel viability, ATPlite luminescence, 48 h; activity change, negative = cytotoxicity: at 57.5 µM (top of the series) unless noted", "in_short": "as §1"}, "OV90": {"tested_on": "OV90", "experiment": "Primary qHTS to identify gynecologic anti-cancer compounds using libraries of approved drugs and bioactive compounds (AID 1345084)", "details": "Gynecologic cancer cell panel viability, ATPlite luminescence, 48 h; series mostly up to 57.5 µM", "in_short": "as §1"}, "[6]": {"biological_target": "Calcium and integrin-binding protein 1 (Homo sapiens) (UniProt Q99828)", "sequence (Q99828 whole entry, looked up)": "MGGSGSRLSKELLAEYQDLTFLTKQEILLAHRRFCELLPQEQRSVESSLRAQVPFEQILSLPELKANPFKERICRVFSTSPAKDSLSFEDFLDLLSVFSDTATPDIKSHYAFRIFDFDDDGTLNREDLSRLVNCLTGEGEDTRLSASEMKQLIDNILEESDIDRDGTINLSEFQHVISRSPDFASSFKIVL", "experiment": "Primary qHTS for Identification of Calcium Integrin Binding Protein 1 (CIB1) Competitor (AID 1508620)", "in_short": "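CIB1-GST (1 uM final) and compound incubated 15 min at room temperature before adding FITC-alphaIIb peptide tracer (100 nM final). Competition for binding read by fluorescence polarization (ex 480, em 540) after another 15 min at room temperature.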"}, "[7]": {"biological_target": "Cytochrome P450 3A4 (Homo sapiens) (UniProt P08684)", "sequence (P08684 whole entry, looked up)": "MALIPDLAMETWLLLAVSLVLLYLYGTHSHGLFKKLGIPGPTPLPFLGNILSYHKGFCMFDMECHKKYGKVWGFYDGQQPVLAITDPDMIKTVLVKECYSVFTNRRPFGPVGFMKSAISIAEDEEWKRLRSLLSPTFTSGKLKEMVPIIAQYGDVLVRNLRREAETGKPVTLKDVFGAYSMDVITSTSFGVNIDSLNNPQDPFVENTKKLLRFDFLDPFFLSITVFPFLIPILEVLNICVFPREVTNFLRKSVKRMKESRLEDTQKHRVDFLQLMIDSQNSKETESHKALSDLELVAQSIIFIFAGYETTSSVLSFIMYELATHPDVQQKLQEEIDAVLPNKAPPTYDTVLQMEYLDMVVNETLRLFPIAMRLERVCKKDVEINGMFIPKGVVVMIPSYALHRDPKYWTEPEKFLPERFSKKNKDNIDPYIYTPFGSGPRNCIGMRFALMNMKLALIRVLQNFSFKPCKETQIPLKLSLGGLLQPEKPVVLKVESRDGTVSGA", "experiment": "Cytochrome P450 family 3 subfamily A member 4 (CYP3A4) small molecule antagonists: luciferase qHTS assay (AID 1645841; active = well fitted curve in the direction sought with a large enough effect in the repeat runs; inconclusive = weak or mixed curves; inactive = no such curve, though single readings can be large; an effect the other way counts as inactive or inconclusive)", "in_short": "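Luminescent CYP3A4 activity readout: compounds plus enzyme-substrate mix 10 min at room temperature, reaction started with NADPH regenerating system for 1 h, stopped with detection reagent, read after 20 min. Ketoconazole served as control.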"}, "CASKI": {"tested_on": "CASKI", "experiment": "Primary qHTS to identify gynecologic anti-cancer compounds using libraries of approved drugs and bioactive compounds (AID 1345084)", "details": "Gynecologic cancer cell panel viability, ATPlite luminescence, 48 h; series mostly up to 57.5 µM", "in_short": "as §1"}, "Hek293T": {"tested_on": "Hek293T", "experiment": "Primary qHTS to identify gynecologic anti-cancer compounds using libraries of approved drugs and bioactive compounds (AID 1345084)", "details": "Gynecologic cancer cell panel viability, ATPlite luminescence, 48 h, control line for the selectivity index; activity change, negative = cytotoxicity: at 57.5 µM (top of the series) unless noted", "in_short": "as §1"}}, "note": "Inconclusive means that the source gave no clear call. Such entries were picked first, then a sample of the others. For part of these data: Potencies of inconclusive entries are doubtful fits and often do not repeat. The source made the active and inactive calls. Unless noted, calls follow the shape of the dose curve; as a rule, active = well fitted curve in the direction sought with a large enough effect; inconclusive = small, poorly fitted or top-dose-only effect, or another doubt; inactive = no such curve, though single readings can be large; an effect the other way counts as inactive or inconclusive. For activity change, negative = cell killing in this document: % is scaled to controls: 0 for no effect and ±100 for the full control effect. For activity change, negative = cell killing in this document: nearly all actives have a fitted effect of over 70% in size.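 For activity change, negative = inhibition in this document: GST tagged CIB1 binding a fluorescein labelled alphaIIb integrin peptide tracer; top concentration of the series differs between compounds; % is scaled to controls: 0 for no effect and ±100 for the full control effect.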 Tags tell the direction and shape of the fitted curve.", "data": [{"compound": "NCCCCN(Cc1nc2ccccc2[nH]1)[C@H]1CCCc2cccnc21", "values": [{"measurement": "max response", "setting": "KB-3-1", "value": "inactive: 1.94%"}, {"measurement": "Potency", "setting": "CAOV3", "value": "inactive"}, {"measurement": "Potency", "setting": "JEG-3", "value": "inactive"}]}, {"compound": "CC1(C)CC[C@]2(C(=O)O[C@@H]3O[C@H](CO)[C@@H](O)[C@H](O)[C@H]3O)CC[C@]3(C)C(=CCC4[C@@]5(C)C[C@@H](O)[C@H](O)C(C)(C)C5CC[C@]43C)C2[C@@H]1O", "note": "(stereo partly specified)", "values": [{"measurement": "Potency", "setting": "[1]", "value": "inactive"}, {"measurement": "Potency", "setting": "[2]", "value": "inactive"}, {"measurement": "Potency", "setting": "[3]", "value": "inconclusive: 12.6 µM [inhibitor, partial curve, poor fit]"}, {"measurement": "outcome", "setting": "KB-3-1", "value": "inactive"}, {"measurement": "Potency", "setting": "CAOV3", "value": "inactive"}, {"measurement": "Potency", "setting": "SKOV3", "value": "inconclusive: 0.891 µM [rising, partial curve, poor fit]"}]}, {"compound": "CC(=O)OC1CC(=O)C2(C)C3CC4=C(OC(C)CC4=O)OC3(C)CCC2C1(C)C", "note": "(stereo unspecified)", "values": [{"measurement": "Potency", "setting": "[4]", "value": "inconclusive: 25.1 µM [inhibitor, partial curve]"}, {"measurement": "Potency", "setting": "[5]", "value": "inconclusive: 11.2 µM [inhibitor, single point]"}, {"measurement": "Potency", "setting": "[1]", "value": "inactive"}, {"measurement": "Potency", "setting": "[3]", "value": "active: 11.6 µM"}, {"measurement": "outcome", "setting": "KB-3-1", "value": "inactive"}, {"measurement": "Potency", "setting": "Es-2", "value": "inactive"}, {"measurement": "Potency", "setting": "SKOV3", "value": "inconclusive: 20 µM [rising, partial curve, poor fit]"}]}, {"compound": "COC(=O)C1=CO[C@@H](O[C@@H]2O[C@H](CO[C@@H]3O[C@H](COC(=O)/C=C/c4ccc(O)cc4)[C@@H](O)[C@H](O)[C@H]3O)[C@@H](O)[C@H](O)[C@H]2O)[C@@H]2C(CO)=CC[C@H]12", "values": [{"measurement": "Potency", "setting": "[1]", "value": "inactive"}, {"measurement": "max response", "setting": "KB-3-1", "value": "inactive: 6.83%"}, {"measurement": "Potency", "setting": "Es-2", "value": "inactive"}, {"measurement": "Potency", "setting": "Tov-21-G", "value": "inactive"}]}, {"compound": "CCC(CC)C(=O)OC12C(OC(=O)C(C)C)C(C)C3(O)C(C=C(CO)CC4(O)C(=O)C(C)=CC43)C1C2(C)C", "note": "(stereo unspecified)", "values": [{"measurement": "Potency", "setting": "[1]", "value": "inconclusive: 0.0126 µM [inhibitor, full curve]"}, {"measurement": "Potency", "setting": "[2]", "value": "inconclusive: 0.01 µM [inhibitor, full curve, poor fit]"}, {"measurement": "Potency", "setting": "KB-3-1", "value": "inconclusive: 14.2 µM [inhibitor, single point]"}, {"measurement": "Potency", "setting": "Es-2", "value": "active: 0.0708 µM"}, {"measurement": "Potency", "setting": "OV90", "value": "inconclusive: 0.112 µM [cytotoxic, full curve, poor fit]"}, {"measurement": "Potency", "setting": "SKOV3", "value": "inactive"}]}, {"compound": "CCC(CC)C(=O)Nc1sc2c(c1C#N)CCC(C(C)(C)CC)C2", "note": "(stereo unspecified)", "values": [{"measurement": "Potency", "setting": "[4]", "value": "inconclusive: 44.7 µM [inhibitor, partial curve]"}, {"measurement": "Potency", "setting": "[5]", "value": "inconclusive: 22.4 µM [inhibitor, single point]"}, {"measurement": "Potency", "setting": "[6]", "value": "inactive"}, {"measurement": "Potency", "setting": "[7]", "value": "active: 9.52 µM"}, {"measurement": "Potency", "setting": "[1]", "value": "inactive"}, {"measurement": "Potency", "setting": "[2]", "value": "inactive"}, {"measurement": "max response", "setting": "KB-3-1", "value": "inactive: -9.22%"}, {"measurement": "Potency", "setting": "CASKI", "value": "inactive"}, {"measurement": "Potency", "setting": "Hek293T", "value": "inconclusive: 39.8 µM [cytotoxic, single point]"}, {"measurement": "Potency", "setting": "SKOV3", "value": "inconclusive: 2.82 µM [rising, partial curve, poor fit]"}]}]}
